# Source: PubChem BioAssay AID686979 (National Center for Advancing Translational Sciences (NCATS), 2013)
# Where “and” joins values, the source holds several entries; their conditions need not be identical. Equal entries are not always repeated. Out of some 420,000 compounds screened, about 50,000 (12%) were called active. This list was built around the results that the source calls inconclusive (neither active nor inactive); the mix of calls is not that of the screen. The call rests on the fitted dose curve; in most records, active means well fitted inhibition curve with a large enough effect; inconclusive means small, poorly fitted or top-dose-only effect; inactive means flat fitted curve, though single readings scatter. Potencies of inconclusive entries are doubtful fits and often do not repeat.
# Experiment: qHTS for Inhibitors of human tyrosyl-DNA phosphodiesterase 1 (TDP1): qHTS in cells in presence of CPT; further: nearly all actives have a fitted effect of over 55% in size
# Settings: chicken DT40 Tdp1-/-;hTDP1 cells + 20 nM CPT, ATP luminescence, 48 h; activity change, negative = growth inhibition: at 46.2 µM (top of the series)
# Summary of the method: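 Chicken DT40 Tdp1-/- cells stably complemented with human TDP1 were seeded at 400 cells/well in medium containing 20 nM camptothecin, exposed to pin-transferred compounds, and grown at 37 °C for at least 48 hr. Viability was read as ATP luminescence.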
# On the % scale 0 is the no-effect control and ±100 the full control effect; potency means the concentration at half of the fitted maximal effect; tags describe the fitted curve by direction and shape.
Structure (SMILES),Potency,"activity change, negative = growth inhibition"
Cc1ccccc1CS(=O)(=O)c1nnc([C@H](CC(C)C)NC(=O)OC(C)(C)C)o1,active: 2.24 µM,
COc1ccc(-c2nc(C)sc2CC(=O)O)cc1OC,inactive,
CCOC(=O)C1(CC2CC2)CCN(C(=O)c2cc(OC)nc3ccccc23)CC1,"inconclusive: 20.6 µM [inhibitor, single point]",
CCCCCC(=O)NC(=S)Nc1ccc2oc(=O)ccc2c1,inactive,
O=C1OC(c2ccccc2)=C/C1=C/c1cccs1,"inconclusive: 32.6 µM [inhibitor, single point]",
CCC[C@@H](CN1CCC[C@H]1CN1C(N)=NC[C@H]1C(C)C)N1C[C@@H](Cc2ccccc2)N(CCCC2CCCC2)C1=N,"inconclusive: 29.1 µM [inhibitor, single point]",
CCNC(=O)C1(C)CCN(C(=O)c2ccc(C#N)cc2)C1 (centres undefined),inactive,
COc1cccc(CCN2C(=O)C(=O)N([C@@H](CNCc3ccccc3)Cc3ccccc3F)C[C@@H]2C(C)(C)C)c1,"inconclusive: 18.4 µM [inhibitor, partial curve, poor fit]",
CC1=NC2(CCCc3c2no[n+]3[O-])N(O)C1(C)C (centres undefined),,inconclusive: -30.1% [inhibitor]
CC1=C(C(=O)N2CCCC(C(=O)c3cccc(C(F)(F)F)c3)C2)OCCO1 (centres undefined),"inconclusive: 23.1 µM [inhibitor, single point]",
Cc1cccc(C(=O)NC(C(=O)Nc2cccc(S(=O)(=O)N3CCCC3)c2)C(C)C)c1 (centres undefined),"inconclusive: 29.1 µM [inhibitor, single point]",
CC1CC(=NNC(=O)C2COc3ccccc3O2)CC(C)(C)C1 (centres undefined),"inconclusive: 20.6 µM [inhibitor, single point]",
COc1ccc(/C=N/n2cnc3c([nH]c4ccc(F)cc43)c2=O)cc1CN1CCCC1,active: 5.17 µM,
O=S(=O)(NC1CCCCC1N1CCN(c2cccc(Cl)c2)CC1)c1ccccc1 (centres undefined),"inconclusive: 7.31 µM [inhibitor, partial curve]",
CCSc1nc(-c2ccccc2OC)nc2c1Cc1c(CO)cnc(C)c1O2,active: 8.2 µM,
CN(CC(=O)Nc1nc2ccccc2s1)S(=O)(=O)c1ccccc1,"inconclusive: 20.6 µM [inhibitor, single point]",
N=C1SC(CC(=O)Nc2ccc([N+](=O)[O-])cc2)C(=O)N1c1ccccc1 (centres undefined),inactive,
CNC(=S)N1CCN(c2nc(-c3ccc(F)cc3)cs2)CC1,"inconclusive: 23.1 µM [inhibitor, single point]",
Cc1cccc(N(CC(=O)NCc2ccco2)S(=O)(=O)c2ccccc2)c1,"inconclusive: 25.9 µM [inhibitor, single point]",
COc1ccc(C(=O)N[C@H](C(=O)OCCCOC(=O)[C@@H](NC(=O)c2ccc(OC)cc2)C(C)C)C(C)C)cc1,active: 23.1 µM,
O=C(CN1CCN(CC(=O)Nc2ccccc2F)CC1)Nc1ccc2c(c1)OCCO2,inactive,
Cc1cnnn1-c1ccc([N+](=O)[O-])cc1,inactive,
CCCNC(=O)OC1CC2CC1[C@H]1CCCCN1C2=O (some centres undefined),inactive,

Structure (SMILES),Potency,"activity change, negative = growth inhibition"
O=C(NCCN1C(=O)S/C(=C\c2ccccc2F)C1=O)C1CCN(S(=O)(=O)c2cccs2)CC1,"inconclusive: 29.1 µM [inhibitor, single point]",
CC(C(=O)N1CCN(C=O)CC1)N1C(=O)c2ccccc2C1=O (centres undefined),"inconclusive: 29.1 µM [inhibitor, single point]",
COCCn1c(SCC(=O)N2CCCC2=O)nc2sc(C)c(C)c2c1=O,inactive,
CN(C)c1ccc(-c2[nH][nH]c(=O)c2NC(=O)c2ccccn2)cc1,"inconclusive: 29.1 µM [inhibitor, single point]",
COc1ccc(OCc2cc(C(=O)N3CCN(C4CCCC4)CC3)no2)c(Cl)c1,"inconclusive: 29.1 µM [inhibitor, single point]",
CS(=O)(=O)c1ccc(Cl)c(NC(=O)COC(=O)CNC(=O)c2ccc3ccccc3c2)c1,"inconclusive: 29.1 µM [inhibitor, single point]",
COc1cc(OC)cc(C(=O)Nc2nnc(Cc3ccc(OC)c(OC)c3)s2)c1,inactive,
Cc1nn(-c2ccccc2)c(N2CCCC2)c1/C=N/n1cnc2scc(-c3ccccc3)c2c1=O,active: 16.4 µM and active: 10 µM,
Cc1cc(C)n2c(Nc3ccc(Cl)cc3)c(-c3ccsc3)nc2n1,"inconclusive: 0.0092 µM [inhibitor, full curve, poor fit]",
CCOc1ccc(NC(=S)N2CCN(S(=O)(=O)c3ccc(OC)cc3)CC2)cc1,inactive,
COc1cc2nc(NCCC(C)C)n3nc(-c4ccccc4)nc3c2cc1OC,"inconclusive: 8.2 µM [inhibitor, partial curve]",
CCCCS(=O)(=O)c1oc(-c2cccs2)nc1S(=O)(=O)c1ccccc1,active: 0.82 µM,
Cc1ccc(NC(CC(=O)c2ccccc2)c2ccc(F)cc2)cc1 (centres undefined),"inconclusive: 23.1 µM [inhibitor, single point]",
CCO/C(C)=N/n1c2nc3ccccc3nc2c2c(=O)n(Cc3ccccc3Cl)c(C)nc21,"inconclusive: 18.4 µM [inhibitor, single point]",
COc1ccccc1CCn1c(=O)c(-c2ccccc2)nc2cncnc21,"inconclusive: 25.9 µM [inhibitor, single point]",
N#Cc1ccc(C2=CC(=O)C[C@H](c3ccc(Cl)cc3)C2)cc1,"inconclusive: 14.6 µM [inhibitor, partial curve]",
CC(C)(C)NC(=O)C1c2ccccc2OCC(=O)N1Cc1ccco1 (centres undefined),inactive,
COc1ccc(-n2c(SCC(=O)N/N=C/c3ccccc3OCC(=O)O)nc3ccccc3c2=O)cc1,inactive,
Cc1ccc(S(=O)(=O)N2CCN(c3ncnc4sccc34)CC2)cc1C,active: 5.8 µM,
Cc1cc2oc(=O)cc(COC(=O)Cn3cnnn3)c2cc1C(C)C,"inconclusive: 25.9 µM [inhibitor, partial curve]",
CCN(CC)S(=O)(=O)c1cccc(C(=O)NCC2(N3CCOCC3)CCCCC2)c1,"inconclusive: 29.1 µM [inhibitor, single point]",
COc1ccc(C(=O)Nc2ccc(-c3ccc(C)o3)cc2)cc1S(=O)(=O)N1CCOCC1,"inconclusive: 25.9 µM [inhibitor, partial curve]",
COc1ccc(C2CC(=O)C3=C(C2)NC(C)=C(C#N)C3c2ccc(N(C)C)cc2)cc1 (centres undefined),inactive,

Structure (SMILES),Potency,"activity change, negative = growth inhibition"
COc1cccc(C(=O)Nc2ccc3nc(SCC(=O)N4CCOCC4)sc3c2)c1,active: 14.6 µM,
Cn1c(=O)n(C)c2cc(NS(=O)(=O)c3ccc(F)cc3)ccc21,"inconclusive: 16.4 µM [inhibitor, single point] and inconclusive: 29.1 µM [inhibitor, single point]",
CC1CCC(CN2C(Nc3ccccc3)=NC[C@@H]2C)CC1 (some centres undefined),active: 18.4 µM,
Cc1ccc(OCC(=O)N(c2ccc(C)cc2)S(=O)(=O)c2ccc(Cl)cc2)cc1,"inconclusive: 20.6 µM [inhibitor, single point]",
CCCS(=O)(=O)NC(=O)C1(C)CCN(C(=O)c2cc(C)oc2C)C1 (centres undefined),inactive,
O=C(NN1C(=O)c2ccccc2C1=O)c1ccc2c(c1)C(=O)N(CC1CCCO1)C2=O (centres undefined),inactive,
COc1ccc2cc(C(=O)Nc3ccc(F)cc3)sc(=O)c2c1OC,inactive,
COc1ccc(-c2nc(N)n(S(=O)(=O)c3ccc(C)cc3)n2)cc1,"inconclusive: 29.1 µM [inhibitor, single point]",
COc1ccc(S(=O)(=O)N2CCCCCC2)cc1C(=O)NCc1ccc(C)cc1,"inconclusive: 23.1 µM [inhibitor, single point]",
Cc1nn(Cc2ccccc2)c(C)c1NC(=O)CSc1nc(-c2ccccc2)nc2c1cnn2-c1ccccc1,"inconclusive: 23.1 µM [inhibitor, single point]",
Cc1ccc2c(CN3CCN(C(=O)c4ccc(F)cc4)CC3)cc(=O)oc2c1,active: 18.4 µM,
Cc1sc2nc(SCC(=O)N(C)Cc3ccccc3)n(-c3ccccc3)c(=O)c2c1C,"inconclusive: 20.6 µM [inhibitor, single point]",
Nc1cccc(-c2nc3ccccc3[nH]2)c1,"inconclusive: 16.4 µM [inhibitor, single point]",
O=C(Nc1ccccc1Cl)N(Cc1nc2ccccc2c(=O)[nH]1)Cc1cccs1,"inconclusive: 25.9 µM [inhibitor, single point]",
O=C(CS(=O)(=O)c1cccc2nsnc12)Nc1ccccc1,inactive,
CCn1c(C)nc2cc(C(=O)N/N=C(\C)c3ccc(OC)cc3O)ccc21,active: 9.2 µM,
CCn1c(=O)c2[nH]c(Cl)nc2n(CC)c1=O,"inconclusive: 23.1 µM [inhibitor, single point]",
COc1ccc(CCCNC(=O)C2CCC(=O)N(CC3CCCCC3)C2)cc1 (centres undefined),active: 16.4 µM,
COc1ccc(OC)c(-c2ccnc(-n3ncc(C(=O)N4CCN(CCO)CC4)c3C3CC3)n2)c1,inactive,
Cc1ccc(/C=C2/CCc3c([nH]c4ccccc34)C2=O)cc1,"inconclusive: 29.1 µM [inhibitor, single point]",
CCOc1ccccc1NC(=O)CSc1nc(=O)[nH]c2c1CCCC2,"inconclusive: 23.1 µM [inhibitor, single point]",
COc1ccc(C2CC(=O)NC(NC(=O)c3ccc(Br)cc3)=N2)c(OC)c1OC (centres undefined),inactive,
CSCCC(NS(=O)(=O)c1ccc2c(c1)oc(=O)n2C)C(=O)N1CCN(c2cc(C)ccc2C)CC1 (centres undefined),"inconclusive: 23.1 µM [inhibitor, single point]",
